Data: paper PMC4336329 (PLoS ONE, 2015)
The campaign covered roughly 310,000 compounds. About 14,000 (4.5%) showed an effect of 50% or more. Effects have a minus sign here. The list shows a part of the results.

Target: human ether-à-go-go-related gene (hERG) potassium channel (human, UniProt Q12809)
Test: primary screen, population patch clamp on CHO cells stably expressing hERG
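Also: peak tail current of the secondary pulse compared with the same well before compound.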

Sequence of human ether-à-go-go-related gene (hERG) potassium channel (Q12809 whole entry, looked up): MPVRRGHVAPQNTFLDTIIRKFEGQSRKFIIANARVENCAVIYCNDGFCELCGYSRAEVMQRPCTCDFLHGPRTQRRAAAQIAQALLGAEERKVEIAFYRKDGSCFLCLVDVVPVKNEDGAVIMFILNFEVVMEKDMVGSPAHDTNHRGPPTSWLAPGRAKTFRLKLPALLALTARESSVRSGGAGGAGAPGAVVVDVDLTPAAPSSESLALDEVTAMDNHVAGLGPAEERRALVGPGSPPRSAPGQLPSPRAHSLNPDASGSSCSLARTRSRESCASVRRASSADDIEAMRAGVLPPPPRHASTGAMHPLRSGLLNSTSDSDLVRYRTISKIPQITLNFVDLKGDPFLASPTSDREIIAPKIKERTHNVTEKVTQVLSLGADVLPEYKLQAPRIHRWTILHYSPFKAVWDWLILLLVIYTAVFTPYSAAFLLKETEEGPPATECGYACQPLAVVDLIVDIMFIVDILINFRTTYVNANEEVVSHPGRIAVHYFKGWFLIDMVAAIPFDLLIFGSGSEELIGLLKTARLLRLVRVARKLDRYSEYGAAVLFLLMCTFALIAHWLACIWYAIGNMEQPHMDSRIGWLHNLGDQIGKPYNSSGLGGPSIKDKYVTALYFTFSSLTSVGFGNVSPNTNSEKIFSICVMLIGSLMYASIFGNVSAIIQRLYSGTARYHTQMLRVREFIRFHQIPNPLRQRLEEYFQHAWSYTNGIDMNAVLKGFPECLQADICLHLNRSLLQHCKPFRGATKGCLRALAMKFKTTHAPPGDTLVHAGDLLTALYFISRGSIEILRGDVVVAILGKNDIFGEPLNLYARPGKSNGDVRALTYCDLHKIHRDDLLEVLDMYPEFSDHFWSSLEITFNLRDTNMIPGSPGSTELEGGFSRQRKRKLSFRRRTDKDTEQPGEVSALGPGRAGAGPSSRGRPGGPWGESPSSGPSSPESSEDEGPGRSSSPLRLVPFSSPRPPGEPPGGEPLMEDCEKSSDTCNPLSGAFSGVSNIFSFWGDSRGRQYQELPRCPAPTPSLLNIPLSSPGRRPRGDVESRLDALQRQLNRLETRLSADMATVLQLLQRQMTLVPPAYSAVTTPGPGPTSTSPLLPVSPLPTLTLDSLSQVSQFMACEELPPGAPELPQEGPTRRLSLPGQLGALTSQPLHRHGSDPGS

SMILES	hERG current change (%, negative = inhibition) at 10uM [%]
Nc1nc(SCc2cccc([N+](=O)[O-])c2)n[nH]1	29.4
COCC(C)NC(=O)/C(=C/c1ccccc1)c1ccccc1 (stereo not shown)	-25
CCOC(=O)c1sc(=S)n(CC)c1N	0.458
CCCCCCn1c(N)c(C(=O)NCCN2CCOCC2)c2nc3ccccc3nc21	-8.61
CC(C)CC(=O)N1CCC(N(CCc2ccccc2)Cc2ccccc2)CC1.O=C(O)C(=O)O	-46.8
CC1CC(C)CN(C(=O)COC(=O)c2ccc3ncsc3c2)C1 (stereo not shown)	-11.4
O=S(=O)(c1cccc(C(F)(F)F)c1)N1CCN(c2cnccn2)CC1	-3.63
Cc1cc(C(=O)OCC(=O)Nc2ccccc2Cl)c(C)o1	7.67
COc1ccc(/C=C2/SC(=S)N(CCCC(=O)Nc3ccc(O)cc3)C2=O)cc1	-4.48
Cn1cnnc1SC(C(=O)Nc1cccc(C(F)(F)F)c1)c1ccccc1 (stereo not shown)	-34.1
CCOC(=O)c1ccc(NC(=O)C2C3CCCCC32)cc1 (stereo not shown)	5.24
COc1cccc(N2CC(C(=O)NNC(=O)c3ccc(Cl)cc3)CC2=O)c1 (stereo not shown)	9.08
N#C/C(C(=O)NCc1ccccc1)=C1\SC(CCO)C(=O)N1c1ccccc1 (stereo not shown)	1.11
COCc1nnc(SCC(=O)NC(C)c2ccccc2)n1-c1ccccc1 (stereo not shown)	11
CCOC(=O)c1c(NC(=O)Cc2ccccc2)sc2c1CC(C)(C)NC2(C)C	-52
CCCN1CCN(S(=O)(=O)c2ccc(-c3cc(C)no3)s2)CC1	-9.43
Cc1nc(NC(=O)c2cccnc2Cl)sc1C	4.14
CCOC(=O)CNC(=O)C1c2ccccc2Oc2ccccc21	6.1
CN(C)CCCN(C(=O)c1ccc(S(=O)(=O)N(C)C)cc1)c1nc2ccc(F)cc2s1.Cl	-32.9
C/C(=C\C(=O)C(F)(F)F)Nc1cc(C)cc(C)c1	9.25
COc1ccccc1OCC(=O)Nc1ccc(NC(=O)COc2ccccc2OC)cc1	20.3
Cc1c(C(=O)N(CCO)Cc2ccccc2)oc2c(F)cccc12	-7.19

SMILES	hERG current change (%, negative = inhibition) at 10uM [%]
Cc1nc2cc(-c3ccccc3)nn2c(C)c1CCC(=O)NC(C)c1ccc2c(c1)OCCO2 (stereo not shown)	-50.8
CCOC(=O)C1(Cc2cccc(OC)c2)CCN(Cc2cnc(C)s2)CC1	-12.2
COc1ccc(-n2c(=S)[nH]c3cc(C(=O)NCc4ccco4)ccc3c2=O)c(OC)c1	11
COC(=O)C1CN(C(=O)C(C)Oc2cc(C)ccc2C(C)C)c2ccccc2O1 (stereo not shown)	5.45
CCOC(=O)c1c(C)nc2cc(C)ccn12	-17.1
O=C1CC(c2ccc(F)cc2)CC2=C1C(c1ccc([N+](=O)[O-])o1)Nc1ccccc1N2 (stereo not shown)	-47.3
COc1c(Br)cc([N+](=O)[O-])c(OC)c1C(=O)NC(=O)Nc1cc(Cl)cc(Cl)c1	10.8
Cc1cc(C(=O)N/N=C/c2c(C)nn(-c3ccccc3)c2C)n[nH]1	5.15
O=C(NN1C(=O)C2C3C=CC(C4CC34)C2C1=O)c1ccc(Br)cc1 (stereo not shown)	22.8
O=C(Nc1ccc(Br)cc1)C1C2C=CC3(O2)C1C(=O)N(CCN1CCCCC1)C3C(=O)NC1CCCCC1 (stereo not shown)	-59.8
CCN(CC)S(=O)(=O)c1ccc(NC(=O)c2cccnc2Cl)c(NC(=O)c2cccnc2Cl)c1	-0.226
CC1CCCC(C)N1C(=O)CSCc1ccc(Cl)cc1 (stereo not shown)	-16.4
NC(=O)c1ccc(SCC(=O)OCC(=O)N2CCN(C(=O)c3ccco3)CC2)c([N+](=O)[O-])c1	23.3
COc1ccc(-n2c(SCC(=O)O)nnc2-c2ccc(NC(=O)c3ccccc3)cc2)cc1	4.94
COc1ccccc1/C=C/C=N/N1CCN(Cc2cccc3ccccc23)CC1	1.45
O=C(Nc1nc2ccccc2[nH]1)c1ccc(Br)o1	-14.3
O=C(c1cccc(OC2CCN(Cc3cccc(OCCO)c3)CC2)c1)N1CCCC1	-2.71
CCCCN(C(=O)NC(=O)Nc1cccc(C)c1C)S(C)(=O)=O	1.54
COc1ccc(C2C(C(=O)Nc3cccc(OC)c3)c3ccccc3C(=O)N2C)cc1 (stereo not shown)	7.68
O=C(Nc1ccsc1C(=O)O)c1cccc(C(F)(F)F)c1	30.9
O=C(COc1ccc2ccccc2c1)NNC(=O)C(=O)Nc1ccccc1	12.5
COc1ccc(S(=O)(=O)N2CCN(c3ccccn3)CC2)cc1[N+](=O)[O-]	-23

SMILES	hERG current change (%, negative = inhibition) at 10uM [%]
CN(C)S(=O)(=O)c1cccc(-c2nn(-c3ccccc3)cc2/C=C(/C#N)C(=O)NCc2ccco2)c1	-26.9
Cc1ccc(S(=O)(=O)N2CCN(C(=O)c3ccc(-n4cncn4)c([N+](=O)[O-])c3)CC2)cc1C	-72.7
CNC(=S)N(CCc1c(C)[nH]c2ccc(C)cc12)Cc1cccs1	23.9
COc1ccccc1NS(=O)(=O)c1cccc(C(=O)OCC(=O)NC2CC2)c1	14.1
COc1ccc(CN2CCC(n3nccc3NC(=O)C3CCCC3)CC2)c(OC)c1	-73.2
CSc1ccc(CNC(C)(C)CO)cc1.Cl	-25.6
COc1ccccc1NC(=O)C1CCN(S(=O)(=O)c2ccc3c(c2)CC(C)N3C(C)=O)CC1 (stereo not shown)	8.71
COc1cc(C2C(C(=O)Nc3ccc(F)cc3)=C(C)Nc3nc(CCCO)nn32)cc(OC)c1OC (stereo not shown)	4.43
COc1cccc(CN(CC(=O)NCc2ccccc2)C(=O)c2csnn2)c1	-1.54
O=C(N/N=C\c1ccc(Cl)s1)C1COc2ccccc2O1 (stereo not shown)	0.727
O=C(CSc1nnc(CCCN2C(=O)c3cccc4cccc(c34)C2=O)n1-c1ccccc1)NCCCO	1.67
COc1ccc(CNC(=O)c2nnn(-c3cccc(C(F)(F)F)c3)c2N)cc1	9.01
COc1ccc(-n2c(NNC(C)=O)nc3sc4c(c3c2=O)CCCC4)cc1	8.35
OC(COc1ccc(OCC(O)CN2CCCCC2)cc1)CN1CCCCC1 (stereo not shown)	15.9
Cc1c(C(=O)OCC(=O)Nc2ccc3c(c2)OCO3)cccc1[N+](=O)[O-]	-2.15
CCC(=O)Nc1ccc(C(=O)Nc2ccc(OC)cc2[N+](=O)[O-])cc1	13.7
CC1Cc2ccccc2N1C(=O)CSc1nc2c(c(=O)n(C)c(=O)n2C)n1Cc1ccccc1 (stereo not shown)	-33.7
CCOCC(=O)Nc1cc(C)on1	36.6
NS(=O)(=O)c1ccc(NC(=S)N2CCCC2)cc1	17.2
O=C(Cc1ccccc1)N1N=C(c2ccncc2)CC1(O)C(F)(F)F (stereo not shown)	12
O=C(CCC1CCCN(Cc2ccc3c(c2)OCCO3)C1)NCc1ccc(F)c(F)c1 (stereo not shown)	-61.5
CN(C)C(=O)c1ccc(-c2cc(C(F)(F)F)nn2C)s1	6.06

SMILES	hERG current change (%, negative = inhibition) at 10uM [%]
Cc1cc(-c2nc3cccnc3s2)ccc1NS(=O)(=O)c1ccc2c(c1)OCCO2	2.99
Cn1c(C(=O)O)c(CC(=O)NCC2COc3ccccc3O2)c2ccccc21 (stereo not shown)	4.56
Cc1cc(C(F)(F)F)n2nc(C(=O)O)c(Cl)c2n1	8.44
COc1ccc(-c2cc(C(=O)NCC(c3ccccc3)N(C)C)c3ccccc3n2)cc1OC (stereo not shown)	-16.4
Nc1ccccc1C(=O)/C=C/c1ccc2c(c1)OCO2	14.4
CCOC(=O)C1=C(C)N(CCCC(=O)O)C(=O)NC1c1ccc(Cl)cc1 (stereo not shown)	26.6
NC1=NC(=O)CC(C(=O)NCCc2ccccc2)S1 (stereo not shown)	19.3
O=C(Nc1nc(-c2ccc(-c3ccccc3)cc2)cs1)C1CCCO1 (stereo not shown)	5.08
CC(=O)c1c(C)nc(-c2ccccc2)n1O	0.137
CCOC(=O)C1=NN(c2ccc(OC)cc2)C2C(=O)N(c3ccccc3OC)C(=O)C12 (stereo not shown)	7.25
O=C(Cn1nnc(-c2ccc(CN3CCOCC3)cc2)n1)N(c1ccccc1)c1ccccc1	10.6
CCN(CC)S(=O)(=O)c1ccc(Cl)c(NC(=O)COc2ccc3c(C)cc(=O)oc3c2)c1	7.69
COc1ccc(N2C(=O)NC(NS(=O)(=O)c3ccc(Cl)cc3)(C(F)(F)F)C2=O)cc1 (stereo not shown)	16.9
COc1cc(/C=N/Nc2nncc3ccccc23)cc(OC)c1OC	-12.5
CCSc1nc2ccccc2[nH]1	-0.969
NC(=O)CNC1CC(=O)N(CCc2ccccc2)C1=O (stereo not shown)	-1.83
O=C(c1ccc2nc3ccccc3c(=O)n2c1)N1CCN(Cc2ccc3c(c2)OCO3)CC1	-60.9
O=C(NC(=S)Nc1ccccc1F)C1CCCCC1	24.1
CCOc1ccc2nc(NC(=S)N(C)C)sc2c1	13
